± gives the standard deviation of the averaged measurements. The list shows a part of the results.
system: PfAP2-G AP2 domain (GST-tagged); experiment: gcPBM binding intensity (ln(normalized median fluorescence intensity)); higher = stronger DNA binding
In short: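 An Agilent 4 × 180k array of primer-extended double-stranded 36-bp intergenic genomic probes, with negative controls, was incubated for 1 h with GST-tagged P. falciparum DNA-binding domains expressed in E. coli. Alexa488 anti-GST antibody detected bound protein, scanned at 488 nm. Binding intensity is the highest Masliner-normalised natural-log median intensity across replicate spots of either probe orientation.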

Sequence	gcPBM binding intensity (ln)
ATTATAAAAATATCGTGTACATATTTTTTAAAATAA [XGTACX_site5072]	11.3 ± 0.83
AAAAAAAAAAAAAAAAGTACACATCATTTTATGAAA [XGTACX_site1402]	11.7 ± 0.76
ATTATTTCAATTTTTTTTGTTTTTAAAAAAAAAAAT [CACACA_negctrl_site1387]	10 ± 0.2
AAAATAAATAAATACACACACACGAATATTTATATA [CACACA_site6892]	9.96 ± 0.057
GAAAACAAAATGGTAACACACAAATGTAAATAGTAT [CACACA_site2113]	10.14 ± 0.064
AATTTCTTATTTTGTACACACAATAAATATTCACAT [CACACA_site1612]	11.2 ± 0.73
AAAAAAAAAAAAAAAAGTACTCTATAAGTAACATTT [XGTACX_site6973]	11.4 ± 0.91
ATTTTTTTGTTATTGTTGAAAAGATGGTTCTTTTTT [CACACA_negctrl_site1346]	10 ± 0.099
TAGTAGTTATCATTAACATGCAATAATATTATTTAA [TGCATGCA_site178]	9.635 ± 0.035
AAGTTAGGATAGATCCAATAATTTTTAGTTTCTCTT [GTGCAC_negctrl_site272]	9.6 ± 0.39
ATGAACATATTTTTTTGTACTTATGAAAATATGTTA [XGTACX_site5996]	11.1 ± 0.64
ATCATATTTATGTTGGTGCATTATACATAAAGTTTA [GTGCAC_site9574]	10.1 ± 0.29
ATATATATATATATATGTACATAATTAATAGCATAT [XGTACX_site1428]	11.2 ± 0.65
GAAAAAGATGCGCATACACACAGATGAATAACAAAA [CACACA_site1628]	10.2 ± 0.12
GAAAAATATATTCTGGTGCATGAATAAAATCATAAA	10 ± 0.29
AATTGGATAAACCAATTGGATTATAATACGATATAT [CACACA_negctrl_site275]	9.845 ± 0.021
AAAATAAGAAAACAAATGCACACCATTTATATAGAT [CACACA_site1055]	9.925 ± 0.092
TATATAATAAGAAAATATGTGCGTAGTTCAGCAAAA [XGTACX_negctrl_site304]	10.2 ± 0.18
TATTCATCACTTTTTTGTACTTATGGATAAAATTTT [XGTACX_site3349]	11.2 ± 0.44
AAAGGATATATCCAGAGTACATATTCTGTGTAATAC [XGTACX_site1547]	11.1 ± 0.64
ATAATTGTTTCTTTCTCCTTTTTATTTCATTTTAAA [CACACA_negctrl_site964]	9.865 ± 0.092
CACAAAAAAAATTATACACACACACCCATATATATA [CACACA_site8255]	10.1 ± 0.2

Sequence	gcPBM binding intensity (ln)
TGTCTTATTTATATTACACACTATATGAAAAAATAT [CACACA_site6807]	10 ± 0.19
TAAATATAATCTAAATGTACATGACATAATTTTTTT [XGTACX_site2856]	10.7 ± 0.49
GTGTAATATGAAATGTGTACACACGCACACACAAAA [XGTACX_site6180]	11.7 ± 1.1
TAAAATATTTTTTGTAGTACCTTAATATTTTTGAAG [XGTACX_site3048]	11.2 ± 0.69
TATATATATTATAGATGTACTTTCATATATATGTTT [XGTACX_site8189]	11 ± 0.69
AGCCACCATATTTACACACACATCAAAATGTATTAA [CACACA_site1816]	10.2 ± 0.17
TTTCAAAAATGAGTTACACACACACCGATATATATA [CACACA_site5263]	10.14 ± 0.099
AATAAATACTAAATGGTGCAAAATTTTTTAACACTG	9.96 ± 0.12
ATGTATATTTTTAAAAGTACAGAATTTTCATATGAA [XGTACX_site5754]	11.3 ± 0.93
ATATACAATACAAAAACACACACAAAAAAAGAAAAG [CACACA_site8668]	10.2 ± 0.16
ATAGTATCTGGTAGCTGTACGAGTCGTAGAGTCTAA [XGTACX_site2539]	11.2 ± 0.98
TATTTATTTATGTACGCACACAGTTGATATTAATTC [CACACA_site2754]	11.6 ± 0.96
TATAATTATTTTTTCACACATATGTATTTATATATA [CACACA_site4205]	9.975 ± 0.007
ATTATTTAACATGTGGACACAAAAATTTAAGGGTTC [CACACA_negctrl_site1269]	11.4 ± 0.83
ATGATAATTATTAAGGGTACATAAAAATATATCTAT [XGTACX_site8969]	11.3 ± 0.73
AGATATATATATAGGTGTACTGGAATGAAATTGTTT [XGTACX_site8200]	11.4 ± 0.49
AATATATTAAATATTACACACATACATTTAGTGGAA [CACACA_site8609]	9.875 ± 0.064
AATATCAAAAAAAAAAAAAAAAAAAAAAAAAAAAAA [CACACA_negctrl_site288]	9.48 ± 0.35
TACTAAGAAAAGAACTGTACATAGAATATACCCAAG [XGTACX_site4757]	10.9 ± 0.53
ATATAATAAATGTAGGTGCATAAAAATATTTTGTTA [GTGCAC_site9780]	10.12 ± 0.078
TTAACCACTAAAAGTACACACATATATACCTATATA [CACACA_site6026]	11.6 ± 0.97
TTTTAATAATATGGATGTACATAAAAATAAATAAAT [XGTACX_site7937]	11.3 ± 0.62

Sequence	gcPBM binding intensity (ln)
CTTGGTAGTTTTTTCTTATAATCTAATTATTAATAA [CACACA_negctrl_site153]	10.2 ± 0.21
TTAATATATAATAAATTTTTTTTTTTTTTTTTTTTT [CACACA_negctrl_site892]	10.6 ± 0.36
ATATATTAATATGTGTGTACTTAACCATTCATATGT [XGTACX_site7395]	11.1 ± 0.69
TTAATATGAAAACTCTGTACCCAACCTTCTTATGGA [XGTACX_site2126]	11.1 ± 0.71
TATATAAATATATAATGTACGTTTTAAAAATAATAT [XGTACX_site3881]	11.2 ± 0.83
AAAACATAAATACATACACACATAATATATATTAAG [CACACA_site4239]	9.92 ± 0.099
TTTTTTTAAAATATGAGTACATAATATTGTAAAAAT [XGTACX_site6536]	11.4 ± 0.9
TAGTATTATTTTTTTTGTACATATAAATGTAAAATA [XGTACX_site5282]	11 ± 0.71
TTATTTAAAATGAAAAGTACATATTACTTTCTCACA [XGTACX_site5043]	11.2 ± 0.82
TCTTGTTTTAATTTTTATATTATTATTTAGATATAT [CACACA_negctrl_site921]	9.7 ± 0.17
ATACATATACACATTTGTACATATTCCTTTTTATCG [XGTACX_site1731]	10.9 ± 0.41
TACTAAATGATCATATGTACACATGTTTACTTTTTA [XGTACX_site1253]	11.4 ± 0.96
ATTATGATATATATATGTACATATATATAATATAAT [XGTACX_site259]	11.2 ± 0.78
TCTATGAATTAATATGCATGTAACGTATTTATACTT [TGCATGCA_site669]	9.95 ± 0.071
TGGATATATGTAAAAATTGCAAGAAAGATAAAAGGA [CACACA_negctrl_site64]	10 ± 0.028
TATAAAAGGAAACACACACACATATATATATATATA [CACACA_site939]	10 ± 0.36
AAAAAAAAAAAAAGTGCACACTTTTAATATAAATAT [CACACA_site3314]	10.7 ± 0.5
TTTTTTTTTTTCCTTACACACATATTTCATTTTATA [CACACA_site747]	9.935 ± 0.021
TTTTTATTTTTTAGTAGTACACACTTTTTGAACCTT [XGTACX_site1091]	11.6 ± 0.97
TTTTATATATATTATACACACAAGGAAAAAAAAAAA [CACACA_site3677]	10.3 ± 0.36
AAGTATCAAAAATAAAGTACATATTTTGTAGGCAGG [XGTACX_site1463]	11.4 ± 0.71
TTATAATATAAAAAATGTACATTAAAAAAAAAGATT [XGTACX_site8950]	11.2 ± 0.8

Sequence	gcPBM binding intensity (ln)
CAAAAAATATATTTTTGTACTTATGTTTTTATTTTG [XGTACX_site5230]	11.1 ± 0.76
TAGTATAATATGAACACACACACACCCACAAAAAAA [CACACA_site2009]	10.4 ± 0.3
AAGGGAAAAAAAAAAGCACACATACGTAAATATATA [CACACA_site7960]	10.1 ± 0.15
AAAAGATAAAATTATGCACACATACGAATAATTTTA [CACACA_site8497]	10 ± 0.11
TATTTCACACAGTATATATATATATATATATATATA [TGCATGCA_negctrl_site118]	10.1 ± 0.61
CACATAATGAAAAATACACACATGTATATTTATAAA [CACACA_site2736]	10.065 ± 0.007
ATCTGACAAAAGTGTACACATATATATATATATATA [CACACA_site4814]	11.7 ± 1.2
AAATGGGAAATTTCATGTACTCATTTACCCTTATTA [XGTACX_site4740]	11.2 ± 0.64
GTTAATTTTTGTATAGTGCAAAAATATAATAGTATG	10.2 ± 0.2
TGTTGGTATGTGAATGCATGCATATAAGTCTATCTG [TGCATGCA_site780]	9.85 ± 0.042
TTGAAGTATAATAAAGTGCAAAATTATAATGATCTT [GTGCAC_site9639]	10 ± 0.071
TATTTATAACAAAGGTTAAATTAAAACTAATCCACA [TGCATGCA_negctrl_site3]	9.9 ± 0.18
GCCAAAATCTAATTTACACACTTATTAAATAATTAC [CACACA_site6251]	9.98 ± 0.071
AATCCCCACTTGTCAAGTACATATATCATGGATGAA [XGTACX_site3486]	10.9 ± 0.55
TTTTTTTTCATTGGTTGTACAATATTTATAATTCAC [XGTACX_site7036]	11.4 ± 0.65
TTTTTTTTTTTTTTTTGTACTTATAAAAAATTTTTT [XGTACX_site1249]	11.1 ± 0.88
TACAGATATAAACACACACACATATATATATATATA [CACACA_site4846]	10.1 ± 0.31
GACATAGTCATATACTGTACTTTATATTATTGTGTA [XGTACX_site6636]	11.3 ± 0.96
ATGTAATATTTACAACGTACAAATTATAAACATATT [XGTACX_site603]	10.8 ± 0.37
TCATATTGGCTGTTCTGTACTTATAAGTTTTAAAGA [XGTACX_site5593]	11.4 ± 0.85
TTTGTTAATATAAAAACACACAAAAATAACATAAAA [CACACA_site2619]	10.2 ± 0.22
TATATTAAAAAAGAGGTGCATTCGTAAGAGGTTAAA [GTGCAC_site9720]	10.05 ± 0.064

Reference: the supplement of paper PMC11417369
